Laboratory results from the supplement of paper PMC6089552.
Out of some 3,200 compounds screened, about 300 (9.4%) showed activity. This is a selection; strong and weak results do not stand in their true shares.

Tested on: A673/TR/shEF
Experiment: cell viability (LOESS-normalised, relative to median of negative controls) (log2 ratio); higher = more viable cells (less compound effect), active = hit call of the paper (over 3 MAD below the median)
Settings: treatment time: 72 h
Procedure, shortened: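 A673/TR/shEF Ewing sarcoma cells (1,500 per well, 384-well plates) were grown with or without doxycycline to induce EWS-FLI1 shRNA knockdown, starting 24 h before compounds. Library compounds at two or more concentrations, with DMSO controls, were added for three days. Cell viability was read by CellTiter-Glo luminescence on an Envision reader, then LOESS-corrected per plate, divided by the median of negative controls and log2-transformed. Hits were wells at least three median absolute deviations from the median of all screened wells.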

[1] = 0.25 µM, library screen: screen1, EWS-FLI1 expression: high (no doxycycline)
[2] = 0.25 µM, library screen: screen1, EWS-FLI1 expression: low (doxycycline-induced shRNA knockdown)
[3] = 2.5 µM, library screen: screen1, EWS-FLI1 expression: high (no doxycycline)
[4] = 2.5 µM, library screen: screen1, EWS-FLI1 expression: low (doxycycline-induced shRNA knockdown)
[5] = 0.25 µM, library screen: screen2, EWS-FLI1 expression: high (no doxycycline)
[6] = 0.25 µM, library screen: screen2, EWS-FLI1 expression: low (doxycycline-induced shRNA knockdown)
[7] = 2.5 µM, library screen: screen2, EWS-FLI1 expression: high (no doxycycline)
[8] = 2.5 µM, library screen: screen2, EWS-FLI1 expression: low (doxycycline-induced shRNA knockdown)
[9] = 0.103 µM, library screen: screen3, EWS-FLI1 expression: high (no doxycycline)
[10] = 0.103 µM, library screen: screen3, EWS-FLI1 expression: low (doxycycline-induced shRNA knockdown)
[11] = 0.308 µM, library screen: screen3, EWS-FLI1 expression: high (no doxycycline)
[12] = 0.308 µM, library screen: screen3, EWS-FLI1 expression: low (doxycycline-induced shRNA knockdown)
[13] = 0.926 µM, library screen: screen3, EWS-FLI1 expression: high (no doxycycline)
[14] = 0.926 µM, library screen: screen3, EWS-FLI1 expression: low (doxycycline-induced shRNA knockdown)
[15] = 2.8 µM, library screen: screen3, EWS-FLI1 expression: high (no doxycycline)
[16] = 2.8 µM, library screen: screen3, EWS-FLI1 expression: low (doxycycline-induced shRNA knockdown)
[17] = 8.3 µM, library screen: screen3, EWS-FLI1 expression: high (no doxycycline)
[18] = 8.3 µM, library screen: screen3, EWS-FLI1 expression: low (doxycycline-induced shRNA knockdown)
[19] = 25 µM, library screen: screen3, EWS-FLI1 expression: high (no doxycycline)
[20] = 25 µM, library screen: screen3, EWS-FLI1 expression: low (doxycycline-induced shRNA knockdown)

Measured: cell viability (log2)

COc1cc2c(cc1OC)C(=O)OC2
inactive: [1] 0.0843 | [2] 0.0499 | [3] 0.167 | [4] 0.0734

OCC(O)CN1CCN(c2ccccc2)CC1 (centres undefined)
inactive: [1] 0.147 | [2] 0.0623 | [3] 0.169 | [4] 0.148

CN(C)CCC(c1ccc(Cl)cc1)c1ccccn1 (centres undefined)
inactive: [1] 0.105 | [2] 0.0524 | [5] 0.231 | [6] 0.122 | [3] 0.0791 | [4] 0.136 | [7] 0.105 | [8] 0.0734

COc1ccc(C(=O)C=Cc2ccccc2)cc1
inactive: [1] 0.0817 | [2] 0.0563 | [3] 0.0612 | [4] 0.0356

CCn1cc(C(=O)O)c(=O)c2cc(F)c(N3CCNCC3)cc21
inactive: [9] 0.145 | [10] 0.0496 | [1] 0.0684 | [2] 0.0633 | [11] 0.0139 | [12] 0.058 | [13] 0.0138 | [14] 0.121 | [3] 0.0971 | [4] 0.0702 | [15] 0.0866 | [16] 0.115 | [17] 0.0448 | [18] 0.11 | [19] 0.0361 | [20] 0.156

COC(=O)c1c(C)cc(OC(=O)c2c(C)cc(O)c(CO)c2O)c(C)c1O
inactive: [1] 0.129 | [2] 0.0318 | [3] 0.139 | [4] 0.0883

CC(=O)O[C@@H]1C=C[C@@]2(C)C(C[C@@H](OC(C)=O)[C@@]3(C)C4=CC(=O)O[C@@H](c5ccoc5)[C@]4(C)CCC23)C1(C)C (some centres undefined)
inactive: [1] 0.0555 | [2] 0.12 | [3] 0.1 | [4] 0.125

COc1c(Cl)c(C)c2c(c1Cl)OC(=O)c1c(C)c(Cl)c(O)c(Cl)c1O2
inactive: [1] 0.0361 | [2] 0.0285 | [3] 0.0998 | [4] 0.0885

CC1(C)S[C@@H]2[C@H](N3C(=O)[C@@H](c4ccccc4)NC3(C)C)C(=O)N2[C@H]1C(=O)O
inactive: [1] 0.142 | [2] -0.0693 | [3] 0.203 | [4] 0.125

CCOC(=O)C1=C(C)NC(C)=C(C(=O)OC)C1c1cccc([N+](=O)[O-])c1 (centres undefined)
inactive: [1] 0.155 | [2] 0.101 | [5] 0.0744 | [6] 0.0855 | [3] 0.176 | [4] 0.127 | [7] 0.102 | [8] 0.0903

NCC1OC(OC2C(N)CC(N)C(OC3OC(CO)C(O)C(N)C3O)C2O)C(N)C(O)C1O (centres undefined)
inactive: [1] 0.0483 | [2] 0.0336 | [3] 0.164 | [4] 0.0237

CC(CN1c2ccccc2Sc2ccccc21)N(C)C (centres undefined)
inactive: [1] 0.0849 | [2] 0.173 | [5] 0.103 | [6] 0.084 | [3] 0.117 | [4] 0.228 | [7] 0.14 | [8] 0.00694

CNC(=O)c1ccccc1Sc1ccc2c(/C=C/c3ccccn3)n[nH]c2c1
active: [17] -0.181 | [19] -0.513
inactive: [9] -0.00228 | [10] 0.0386 | [11] 0.0978 | [12] 0.044 | [13] 0.0712 | [14] 0.145 | [15] 0.0241 | [16] 0.188 | [18] 0.195 | [20] -0.0147

O=C(CCCCCCCCCCCCC1CCCC1)Nc1ccc(S(=O)(=O)c2ccc(NC(=O)CCCCCCCCCCCCC3CCCC3)cc2)cc1
inactive: [1] 0.0586 | [2] 0.0308 | [3] 0.0372 | [4] 0.0442

CC(C(=O)O)N1C(=O)C(=Cc2ccccn2)SC1=S (centres undefined)
active: [1] -2.05 | [2] -1.9
inactive: [3] 0.144 | [4] 0.106

NS(=O)(=O)c1cc2c(cc1C(F)(F)F)NC(Cc1ccccc1)NS2(=O)=O (centres undefined)
inactive: [1] 0.0917 | [2] 0.0266 | [3] 0.0731 | [4] 0.0411

O=C1c2ccccc2-c2n[nH]c3cccc1c23
active: 25 µM, library screen: screen1, EWS-FLI1 expression: high (no doxycycline) -0.11

O=C(c1ccc(OCCN2CCCCC2)cc1)c1c(-c2ccc(O)cc2)sc2cc(O)ccc12
inactive: [9] 0.0446 | [10] 0.0571 | [5] 0.148 | [6] 0.0346 | [11] 0.00719 | [12] 0.00103 | [13] -0.0145 | [14] 0.0373 | [7] 0.144 | [8] 0.0618 | [15] -0.0223 | [16] 0.0185 | [17] -0.0365 | [18] 0.0225 | [19] -0.175 | [20] -0.0203

Cc1cc(O)cc(=O)o1
inactive: [1] 0.041 | [2] -0.033 | [3] 0.0868 | [4] -0.00159

S=P(N1CC1)(N1CC1)N1CC1
inactive: [1] 0.117 | [2] 0.07 | [3] 0.0849 | [4] 0.0978

COc1cc(N)c(Cl)cc1C(=O)NC1CCN(Cc2ccccc2)CC1
inactive: [1] 0.0541 | [2] -0.0718 | [3] 0.0979 | [4] -0.0595

OC[C@@H](O)[C@@H](O)C(O)[C@H](O)[C@@H](O)CO (some centres undefined)
inactive: [1] 0.0348 | [2] 0.0046 | [3] 0.138 | [4] 0.018

CC(=O)O[C@H]1CC[C@]2(C)[C@H]3CC=C4[C@@H]5CC(C)(C)CC[C@]5(C(=O)O)CC[C@@]4(C)[C@]3(C)CC[C@H]2C1(C)C
inactive: [1] 0.0325 | [2] 0.0553 | [3] 0.0391 | [4] 0.0458

COc1ccc(CN2CCN(Cc3ccccc3F)CC2)c(OC)c1
inactive: [1] 0.164 | [2] 0.0508 | [3] 0.0471 | [4] 0.126

NC(N)=NCCN1CCCCCCC1
inactive: [1] 0.086 | [2] 0.0896 | [3] 0.182 | [4] 0.105

O=C(NCC1CCCCN1)c1cc(OCC(F)(F)F)ccc1OCC(F)(F)F (centres undefined)
inactive: [5] 0.161 | [6] 0.0457 | [7] 0.121 | [8] 0.0811

CC1CCc2cc(F)cc3c(=O)c(C(=O)O)cn1c23 (centres undefined)
inactive: [1] 0.0685 | [2] 0.0111 | [3] 0.214 | [4] 0.0852

COc1cc2c(cc1OC)-c1c(oc3cc(O)cc(O)c3c1=O)CO2
inactive: [1] 0.0542 | [2] 0.053 | [3] 0.119 | [4] 0.146

C=C[C@H]1CN2CCC1C[C@@H]2[C@@H](O)c1ccnc2ccc(OC)cc12 (some centres undefined)
inactive: [1] 0.0704 | [2] 0.101 | [5] 0.217 | [6] 0.0627 | [3] 0.154 | [4] 0.184 | [7] 0.157 | [8] 0.108

CCCOc1ccc2nc(NC(=O)OC)[nH]c2c1
active: [3] -0.659
inactive: [1] 0.0532 | [2] 0.106 | [4] -0.0137

CCCCOc1ccc(OCCCN2CCOCC2)cc1
inactive: [1] 0.172 | [2] 0.0279 | [3] 0.124 | [4] 0.0578

COc1cc(CN2CCN(Cc3cccc(OC)c3OC)CC2)c([N+](=O)[O-])cc1OC
inactive: [1] 0.00876 | [2] 0.0541 | [3] 0.119 | [4] -0.0278

COc1c(O)cc2c(c1O)[C@@H]1O[C@H](CO)[C@@H](O)[C@H](O)[C@H]1OC2=O
inactive: [1] 0.0447 | [2] 0.023 | [3] 0.0424 | [4] 0.0844

CC(=O)Oc1cccc(C(=O)O)c1OC(C)=O
inactive: [1] -0.0535 | [2] 0.0969 | [3] 0.0401 | [4] 0.0587

CC1OC1P(=O)(O)O (centres undefined)
inactive: [1] 0.0804 | [2] 0.0996 | [5] 0.102 | [6] 0.038 | [3] 0.16 | [4] 0.0713 | [7] 0.045 | [8] 0.0792

Nc1cccc(-c2cc3c(Oc4cccc(O)c4)ncnc3[nH]2)c1
active: [19] -0.494 | [20] -0.321
inactive: [9] 0.136 | [10] 0.0102 | [11] 0.0422 | [12] 0.0346 | [13] 0.0247 | [14] 0.00411 | [15] -0.00369 | [16] 0.0285 | [17] -0.0241 | [18] 0.0796

COC(=O)[C@@H]1OC(=O)C2OC23[C@@]1(C)CCC1[C@]2(C)C(C[C@@H](O)[C@]13C)C(C)(C)[C@H](OC(C)=O)C[C@@H]2OC(C)=O (some centres undefined)
inactive: [1] 0.0653 | [2] 0.123 | [3] 0.0967 | [4] 0.0969

COc1ccc(CCCOC(Cn2ccnc2)c2ccc(OC)cc2)cc1 (centres undefined)
inactive: [5] 0.147 | [6] -0.026 | [7] 0.177 | [8] 0.0168

COc1ccccc1OCCNCC(O)COc1cccc2[nH]c3ccccc3c12 (centres undefined)
inactive: [1] 0.0598 | [2] 0.0785 | [3] -0.00725 | [4] 0.114

COC(=O)Nc1ccc(S(=O)(=O)N2C(C)CCCC2C)cc1 (centres undefined)
inactive: [1] 0.0592 | [2] 0.103 | [3] 0.0767 | [4] 0.0829

CC(C)c1nc(CN(C)C(=O)N[C@H](C(=O)N[C@@H](Cc2ccccc2)C[C@H](O)[C@H](Cc2ccccc2)NC(=O)OCc2cncs2)C(C)C)cs1
inactive: [9] 0.0232 | [10] 0.0233 | [11] 0.153 | [12] 0.109 | [13] 0.0131 | [14] 0.0345 | [15] 0.138 | [16] 0.0521 | [17] 0.0847 | [18] 0.0462 | [19] 0.0809 | [20] 0.0847
